Assay results taken from patent US5169932A, “GnRH analogs” (The Salk Institute for Biological Studies, priority 1990, dated 1992).
Not every detail of the peptide structures is certain; ends, links or a residue may be inferred. Some compounds share one wording; it may come from a single statement. Numbered stars: 1 amine (or outer) side, 2 acyl side, 3 side chain; on linkers, the order of the positions; unused ones are H or OH. Square brackets hold non-standard residues; d marks the D form. Peptide text beside a SMILES is read from it. dLys(Nε-C(NCN)NHBu) = CCCCNC(=NC#N)NCCCC[C@@H](N)C(=O)O; X22 = N#CN=C(NCCCC[C@@H](N[*:1])C(=O)[*:2])NCc1ccncc1; hArg(ω-Bu,ω'-CN) = CCCC/N=C(\NC#N)NCCCC[C@H](N)C(=O)O; X21 = N#CN=C(NCCCC[C@H](N[*:1])C(=O)[*:2])NCc1ccncc1; X35 = N#CN=C(NCCCC[C@@H](N[*:1])C(=O)[*:2])Oc1ccccc1; X16 = N#CN=C(NCCCC[C@H](N[*:1])C(=O)[*:2])Oc1ccccc1; X15 = CCCCCCNC(=NC#N)NCCCC[C@@H](N[*:1])C(=O)[*:2]; X14 = CCCCCCNC(=NC#N)NCCCC[C@H](N[*:1])C(=O)[*:2]; X10 = CNC(=NC#N)NCCCC[C@@H](N[*:1])C(=O)[*:2]; X9 = CNC(=NC#N)NCCCC[C@H](N[*:1])C(=O)[*:2]; dPhe(4-Cl) = N[C@H](Cc1ccc(Cl)cc1)C(=O)O; d2Nal = N[C@H](Cc1ccc2ccccc2c1)C(=O)O; Lys(iPr) = CC(C)NCCCC[C@H](N)C(=O)O; d3Pal = N[C@H](Cc1cccnc1)C(=O)O

System: mature female Sprague-Dawley rats (ovulation)
Assay: in vivo test of effectiveness to prevent ovulation in female rats
Design: species or system rat
Conditions: for effective to prevent ovulation of female mammals: at low dosages; for Rats Ovulating: injected at about noon on the day of proestrus, rats ovulating/rats treated

Structure (SMILES): CC(=O)N[C@H](Cc1ccc2ccccc2c1)C(=O)N[C@H](Cc1ccc(Cl)cc1)C(=O)N[C@H](Cc1cccnc1)C(=O)N[C@@H](CO)C(=O)N[C@H]1CCCNC(=NC#N)NCCCC[C@@H](C(=O)N2CCC[C@H]2C(=O)N[C@H](C)C(N)=O)NC(=O)[C@H](CC(C)C)NC(=O)[C@@H](Cc2c[nH]c3ccccc23)NC1=O [Example 146]
- effective to prevent ovulation of female mammals: considered to be effective

Structure (SMILES): CC(=O)N[C@H](Cc1ccc2ccccc2c1)C(=O)N[C@H](Cc1ccc(Cl)cc1)C(=O)N[C@H](Cc1c[nH]c2ccccc12)C(=O)N[C@@H](CO)C(=O)N[C@@H](CCCNC(=N)N)C(=O)N[C@H](Cc1ccc2ccccc2c1)C(=O)N[C@@H](CC(C)C)C(=O)N[C@@H](CCCCNC(=NC#N)Oc1ccccc1)C(=O)N1CCC[C@H]1C(=O)N[C@H](C)C(N)=O [Peptide 86] (Ac-[d2Nal][dPhe(4-Cl)][dW]SR[d2Nal]L[X16]P[dA]-NH2)
- Rats Ovulating (dosage 2.5 micrograms): 4/15
- Rats Ovulating (dosage 5.0 micrograms): 5/5

Structure (SMILES): CCCCNC(=NC#N)NCCCC[C@H](NC(=O)[C@H](CO)NC(=O)[C@@H](CCCCNC(=NC#N)NCCCC)NC(=O)[C@@H](Cc1ccc(Cl)cc1)NC(=O)[C@@H](Cc1ccc2ccccc2c1)NC(C)=O)C(=O)N[C@H](CCCCNC(=NC#N)NCCCC)C(=O)N[C@@H](CC(C)C)C(=O)N[C@@H](CCCCNC(C)C)C(=O)N1CCC[C@H]1C(=O)N[C@H](C)C(N)=O [Peptide 122] (Ac-[d2Nal][dPhe(4-Cl)][dLys(Nε-C(NCN)NHBu)]S[hArg(ω-Bu,ω'-CN)][dLys(Nε-C(NCN)NHBu)]L[Lys(iPr)]P[dA]-NH2)
- Rats Ovulating (dosage 10 micrograms): 4/6

Structure (SMILES): CC(=O)N[C@H](Cc1ccc2ccccc2c1)C(=O)N[C@H](Cc1ccc(Cl)cc1)C(=O)N[C@H](Cc1cccnc1)C(=O)N[C@@H](CO)C(=O)N[C@@H](CCCNC(=N)N)C(=O)N[C@H](CCCCNC(=NC#N)Oc1ccccc1)C(=O)N[C@@H](CC(C)C)C(=O)N[C@@H](CCCNC(=N)N)C(=O)N1CCC[C@H]1C(=O)N[C@H](C)C(N)=O [Peptide 89] (Ac-[d2Nal][dPhe(4-Cl)][d3Pal]SR[X35]LRP[dA]-NH2)
- Rats Ovulating (dosage 10 micrograms): 2/18

Structure (SMILES): CC(=O)N[C@H](Cc1ccc2ccccc2c1)C(=O)N[C@H](Cc1ccc(Cl)cc1)C(=O)N[C@H](Cc1cccnc1)C(=O)N[C@@H](CO)C(=O)N[C@H]1CCCCNC(=NC#N)NCCCC[C@@H](C(=O)N2CCC[C@H]2C(=O)N[C@H](C)C(N)=O)NC(=O)[C@H](CC(C)C)N(C)C(=O)[C@@H](Cc2cccnc2)NC1=O [Example 145]
- effective to prevent ovulation of female mammals: considered to be effective

Structure (SMILES): CCCCCCNC(=NC#N)NCCCC[C@H](NC(=O)[C@H](CO)NC(=O)[C@@H](Cc1cccnc1)NC(=O)[C@@H](Cc1ccc(Cl)cc1)NC(=O)[C@@H](Cc1ccc2ccccc2c1)NC(C)=O)C(=O)N[C@H](CCCCNC(=NC#N)NCCCCCC)C(=O)N[C@@H](CC(C)C)C(=O)N[C@@H](CCCCNC(C)C)C(=O)N1CCC[C@H]1C(=O)N[C@H](C)C(N)=O [Peptide 9] (Ac-[d2Nal][dPhe(4-Cl)][d3Pal]S[X14][X15]L[Lys(iPr)]P[dA]-NH2)
- Rats Ovulating (dosage 1.0 micrograms): 5/5
- Rats Ovulating (dosage 2.5 micrograms): 0/6

Structure (SMILES): CC(=O)N[C@H](Cc1ccc2ccccc2c1)C(=O)N[C@H](Cc1ccc(Cl)cc1)C(=O)N[C@H](Cc1cccnc1)C(=O)N[C@@H](CO)C(=O)N[C@@H](CCCCNC(=NC#N)NCc1ccncc1)C(=O)N[C@H](CCCCNC(=NC#N)NCc1ccncc1)C(=O)N[C@@H](CC(C)C)C(=O)N[C@@H](CCCCNC(C)C)C(=O)N1CCC[C@H]1C(=O)N[C@H](C)C(N)=O [Peptide 8] (Ac-[d2Nal][dPhe(4-Cl)][d3Pal]S[X21][X22]L[Lys(iPr)]P[dA]-NH2)
- Rats Ovulating (dosage 1.0 micrograms): 5/5
- Rats Ovulating (dosage 2.5 micrograms): 5/19

Structure (SMILES): CNC(=NC#N)NCCCC[C@H](NC(=O)[C@H](CO)NC(=O)[C@@H](Cc1cccnc1)NC(=O)[C@@H](Cc1ccc(Cl)cc1)NC(=O)[C@@H](Cc1ccc2ccccc2c1)NC(C)=O)C(=O)N[C@H](CCCCNC(=NC#N)NC)C(=O)N[C@@H](CC(C)C)C(=O)N[C@@H](CCCCNC(C)C)C(=O)N1CCC[C@H]1C(=O)N[C@H](C)C(N)=O [Peptide 2] (Ac-[d2Nal][dPhe(4-Cl)][d3Pal]S[X9][X10]L[Lys(iPr)]P[dA]-NH2)
- Rats Ovulating (dosage 2.0 micrograms): 2/10
- Rats Ovulating (dosage 2.5 micrograms): 6/6
